Reference: PubChem BioAssay AID360 (National Center for Advancing Translational Sciences (NCATS), 2006)
The whole screen tested about 48,000 compounds, of which about 550 (1.1%) were called active. Roughly 4% stayed inconclusive and do not appear here. Rule as the data show it: active = potency below about 15 µM; inconclusive = mostly about 16 µM to 33 µM; inactive = weaker than that. The list shows a part of the results.

molecular target: Lysosomal acid glucosylceramidase (Homo sapiens) (UniProt P04062); experiment: Glucocerebrosidase; details: purified enzyme, resorufin glucoside fluorescence (screen aimed at inhibitors), 20 min; series mostly up to 77 µM;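 also: the screen sought inhibitors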
Procedure, shortened: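 Normal human glucocerebrosidase (0.2 nM final) was assayed with resorufin β-D-glucopyranoside (30 uM final) in 50mM citric acid/KH2PO4, 10mM sodium taurocholate, 0.01% tween-20, pH 5.9. Compounds were titrated; fluorescence (Ex 548, Em 600) read after 20 min at RT.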
Potency is read from the fitted curve at half-maximal effect.

Chain of UniProt P04062 (P04062 whole entry, looked up): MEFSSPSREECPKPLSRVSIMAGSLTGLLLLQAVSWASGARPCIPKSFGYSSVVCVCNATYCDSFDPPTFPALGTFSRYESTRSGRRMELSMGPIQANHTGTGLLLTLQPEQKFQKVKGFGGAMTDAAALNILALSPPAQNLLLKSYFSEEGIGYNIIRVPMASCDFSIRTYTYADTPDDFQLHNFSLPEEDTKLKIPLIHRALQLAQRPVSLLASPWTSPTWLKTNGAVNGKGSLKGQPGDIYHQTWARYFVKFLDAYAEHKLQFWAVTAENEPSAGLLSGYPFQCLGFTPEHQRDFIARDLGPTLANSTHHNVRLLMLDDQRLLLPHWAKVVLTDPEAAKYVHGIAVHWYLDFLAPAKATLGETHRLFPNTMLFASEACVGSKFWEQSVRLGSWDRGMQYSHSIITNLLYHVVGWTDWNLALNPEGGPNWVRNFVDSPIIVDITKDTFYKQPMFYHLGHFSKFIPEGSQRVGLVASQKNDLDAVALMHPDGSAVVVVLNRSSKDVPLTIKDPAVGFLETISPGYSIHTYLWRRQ

Potency, inactive:
O=C(CCS(=O)(=O)c1cccc2nsnc12)NCc1ccccc1 > 76.9 µM, O=C(CN1CCC(NC(=O)Nc2ccccc2-c2ccccc2)CC1)NCc1ccco1 > 15.4 µM, O=C(CSc1nnc(CNC(=O)c2cccs2)o1)NC1CCCCC1 > 76.9 µM, O=C(CSc1ncccn1)c1ccccc1Br > 76.9 µM, O=C(O)c1cc(S(=O)(=O)O)ccc1O > 76.9 µM, O=S(=O)(Nc1nc2ccccc2[nH]1)c1ccccc1 > 76.9 µM, COc1cccc(-c2nc(CSCC(=O)NCC3CCCO3)c(C)o2)c1 (centres undefined) > 76.9 µM, O=C(CC(c1ccccc1)c1cc(Cl)ccc1O)N1CCOCC1 (centres undefined) > 76.9 µM, Cc1cccc(-n2nc3c(c2NC(=O)c2ccc(Br)o2)CSC3)c1C > 76.9 µM, Cc1ccc(O)c(CC(C)C)n1 > 76.9 µM, Cc1cccn2c(=O)c3cc(C(=O)NCC4CCCO4)n(C)c3nc12 (centres undefined) > 76.9 µM, CCN(CC)c1ncnc2c1cnn2C > 76.9 µM, Cc1ccc(C(=O)CCC(=O)Nc2cccnc2)cc1C > 76.9 µM, Cc1ccc(CC2CC(=O)N(c3ccncc3)C2=O)cc1 (centres undefined) > 76.9 µM, COC(=O)C(O)(CC(=O)Nc1cccc(SC)c1)C(F)(F)F (centres undefined) > 76.9 µM, O=C(c1ccc2c(c1)OCCO2)C1CCN(C(=O)c2ccc(F)cc2)CC1 > 76.9 µM, CCOC(=O)c1cnc2nc(C)[nH]n2c1=O > 76.9 µM, Cc1cc(C)n2nc(CC(=O)NC3CCCCCCC3)nc2n1 > 76.9 µM, Cc1sc2ncnc(SCC(=O)NC(=O)NCc3ccco3)c2c1C > 76.9 µM, CCn1ncc(Br)c1C(=O)Nc1ccc(F)cc1F > 76.9 µM, Cn1c(=O)c2c(nc(CN3CCc4ccccc4C3)n2Cc2ccc(Cl)cc2)n(C)c1=O > 76.9 µM, COc1ccc(Cl)cc1C(=O)CSc1nc(N)cc(N)n1 > 76.9 µM, O=C(NCCCN1CCCC1=O)c1cc(=O)c2ccccc2o1 > 76.9 µM, CCCCOC(=O)CSc1nc(N)c(C#N)c(-c2ccc(OCC)cc2)c1C#N > 76.9 µM, CCOc1ccc(N2CC(C(=O)NCc3cccc(C)c3)CC2=O)cc1 (centres undefined) > 76.9 µM, CC1Cc2ccccc2N1C(=O)CSc1nnc(CNc2ccccc2)o1 (centres undefined) > 76.9 µM, c1ccc2c(c1)oc1c(Nc3ccc4c(c3)OCO4)ncnc12 > 76.9 µM, Cc1c(C2(O)C(=O)Nc3ccc(F)cc32)c(=O)n(-c2ccccc2)n1C (centres undefined) > 76.9 µM, CC1(C)CC(=O)C=C(NCC2CCCO2)C1 (centres undefined) > 76.9 µM, O=C(Nc1ccc(Cl)cc1)c1ccsn1 > 76.9 µM, Cc1c(NC(=O)C2CCCNC2=O)c(=O)n(-c2ccccc2)n1C (centres undefined) > 76.9 µM, CCCCCn1c(=O)[nH]c2cc(C(=O)NCCCN3CCC(C)CC3)ccc2c1=O > 76.9 µM, O=C(C1CC(c2ccccc2O)=NO1)N1CCCC1 (centres undefined) > 76.9 µM, COC(=O)c1ccccc1S(=O)(=O)Nc1ccc2cn[nH]c2c1 > 76.9 µM, CCOc1ccccc1-c1nc2c([nH]1)c(=O)n(C)c(=O)n2C > 76.9 µM, CCN1C(=O)C2(C(C#N)=C(N)Oc3cc(C)oc(=O)c32)c2ccccc21 (centres undefined) > 76.9 µM, COC(=O)c1cc(C(=O)OC)cc(N2C(=O)CN=C2Nc2nc(C)cc(C)n2)c1 > 76.9 µM, CCOC(=O)Cc1nnc(NC(=O)COc2ccc(C)cc2)s1 > 76.9 µM, CCCN1CCN(CCCNC(=O)Cn2nc(-c3ccccc3)ccc2=O)CC1 > 76.9 µM, N#Cc1cn(CC(=O)O)c2ccccc12 > 76.9 µM, Cc1cc(NC(=O)c2cc(-c3ccccc3)on2)n(-c2ccccc2)n1 > 76.9 µM, Cc1nnc(SCC(=O)N2CCC(C(=O)Nc3nccs3)CC2)n1Cc1ccccc1 > 76.9 µM, CC1(c2ccc3c(c2)OCO3)NC(=O)N(CC(=O)Nc2ccc(N3CCOCC3)cc2)C1=O (centres undefined) > 76.9 µM, CC(C)n1c(C(=O)OCC(=O)NCc2ccc3c(c2)OCO3)cc2sccc21 > 76.9 µM, COc1cc(C2C(C(=O)c3ccco3)=C(O)C(=O)N2c2cc(C)on2)cc(Br)c1O (centres undefined) > 76.9 µM, CCn1c(N)c(C(=O)NCc2ccc3c(c2)OCO3)sc1=S > 76.9 µM, C=CCNc1nc(-c2ccc(OC)cc2OC)cs1 > 76.9 µM, Cc1cc(C)cc(Oc2ccc(N)cc2)c1 > 76.9 µM, Cn1c(=O)c2c(nc(CN3CCOCC3)n2CC(=O)c2ccccc2)n(C)c1=O > 76.9 µM, CN1/C(=C\C(=O)CN2C(=O)NC3(CCCCCC3)C2=O)C(C)(C)c2ccccc21 > 76.9 µM, O=C(Cc1ccccc1)N1CCCC(c2nc(-c3cccs3)no2)C1 (centres undefined) > 76.9 µM, CC(C)(C)C(=O)Cn1c(=O)n(CC2CCCO2)c(=O)c2ccccc21 (centres undefined) > 76.9 µM, CC(=O)N1CCc2cc(S(=O)(=O)NC(C(=O)NCc3ccccc3)C(C)C)ccc21 (centres undefined) > 76.9 µM, Cc1ccccc1OCc1nnc(SCC(=O)NCc2ccccc2)n1C > 76.9 µM, Cc1nnc(SCC(=O)Nc2sccc2C(N)=O)n1Cc1ccccc1 > 76.9 µM, O=C(O)C1CCCCC1C(=O)NCCCN1CCOCC1 (centres undefined) > 76.9 µM, C=CCNC(=O)c1ccccc1Cl > 76.9 µM, CCC(C)N(C(=O)COC(=O)Cc1n[nH]c(=O)c2ccccc12)C1CCS(=O)(=O)C1 (centres undefined) > 76.9 µM, COc1ccc2nc(CC(C)(C)CC(=O)O)c[n+]([O-])c2c1 > 76.9 µM
